Laboratory results reported in patent publication US10709135B2, “Organophosphates for treating afflictions of the skin” (priority 2013, dated 2020).

Columns and labels:
workers = conditions: 13 workers exposed for 12 months to an average of 0.7 mg/m^3; cited from earlier work
[1] = biological target: erythrocyte cholinesterase (Homo sapiens, UniProt P22303); conditions: 13 workers exposed for 12 months to an average of 0.7 mg/m^3; cited from earlier work
serum cholinesterase = serum cholinesterase (Homo sapiens, UniProt P06276); conditions: 13 workers exposed for 12 months to an average of 0.7 mg/m^3; cited from earlier work
rats = conditions: 1000 mg/kg diet; cited from earlier work
humans = conditions: 4.5 g in a single dose, usual cholinergic symptoms, no polyneuritis; cited from earlier work
EYES = conditions: in vivo; cited from earlier work
rosacea = experiment: Topical 1% dichlorvos (DDVP) wash treatment of rosacea, Patient 1
carmine spider mite = conditions: adults; cited from earlier work
[2] = tested on: Ants, aphids, mites, mealybugs, ticks, Drosophila, flies and many others; conditions: cited from earlier work

For `COP(=O)(OC)OC=C(Cl)Cl` [dichlorvos, 2,2-dichlorovinyl dimethyl phosphate], the “Results of other tests and thorough medical examinations” value (workers) is listed as “entirely normal”, the “Reduction of erythrocyte cholinesterase activity” value [1] is listed as “approximately 35%” and the “Reduction of serum cholinesterase activity” value (serum cholinesterase) is listed as 60%. The “Intoxication in 90-day feeding trials” value (rats) was “no intoxication”, the “Adverse effects after ingestion” value (humans) was “few adverse effects” and the Eye irritation (EYES) was “Not known to be an eye irritant”. For the same compound, the “Resolution of clinical symptoms” value (rosacea; 1% DDVP wash every 3 days, entire body and face) was “resolution of many clinical symptoms”, the “Redness, erythema and pustules on cheeks and chin” value (rosacea; Patient 1) was “cleared” and the Papules (rosacea; Patient 1, 1% solution, every 3 to 4 days, by 12 weeks) was “no papules are present”. The Return of symptoms (rosacea; Patient 1, 6 months post-treatment) was “had not returned”, the “Speed and effectiveness compared with all available treatment options” value (rosacea; Patient 1, DDVP wash regimen) was “fastest acting and most effective” and the Itching and burning (rosacea; Patient 1, after just a few treatments) was “cessation”. For the same compound, the “Flushing with heat, spicy foods or other rosacea flare triggers” value (rosacea; Patient 1, by 12 weeks) was “no more flushing”, the LT50 (carmine spider mite) was 28 s and the Knock-down effects [2] was “Extremely fast knock-down effects”. The Residual control [2] was 2-3 weeks.
